Test results published in PubChem BioAssay AID1347165 (National Center for Advancing Translational Sciences (NCATS), 2019).
The campaign covered roughly 220,000 compounds. About 5,700 (2.6%) were called active. Inconclusive means that the source gave no clear call. Such entries were picked first, then a sample of the others. Calls come from the whole dose curve; as a rule, active = well fitted inhibition curve with a large enough effect; inconclusive = small, poorly fitted or top-dose-only effect; inactive = no such curve, though single readings can be large or run the other way. Where the call is inconclusive, the potency comes from a doubtful curve fit.

molecular target: Lysine-specific demethylase 5B (Homo sapiens) (UniProt Q9UGL1); test: Primary screen for KDM5B Histone Demethylases FDH-coupled qHTS; details: FDH-coupled NADH fluorescence (FDH is formaldehyde dehydrogenase); activity change, negative = inhibition: at 57.7 µM (top of the series) unless noted; note: nearly all actives have a fitted effect of over 70% in size; for activity change, negative = inhibition: 0% is about no effect
Sequence of UniProt Q9UGL1 (Q9UGL1 whole entry, looked up, the tested form may be a part): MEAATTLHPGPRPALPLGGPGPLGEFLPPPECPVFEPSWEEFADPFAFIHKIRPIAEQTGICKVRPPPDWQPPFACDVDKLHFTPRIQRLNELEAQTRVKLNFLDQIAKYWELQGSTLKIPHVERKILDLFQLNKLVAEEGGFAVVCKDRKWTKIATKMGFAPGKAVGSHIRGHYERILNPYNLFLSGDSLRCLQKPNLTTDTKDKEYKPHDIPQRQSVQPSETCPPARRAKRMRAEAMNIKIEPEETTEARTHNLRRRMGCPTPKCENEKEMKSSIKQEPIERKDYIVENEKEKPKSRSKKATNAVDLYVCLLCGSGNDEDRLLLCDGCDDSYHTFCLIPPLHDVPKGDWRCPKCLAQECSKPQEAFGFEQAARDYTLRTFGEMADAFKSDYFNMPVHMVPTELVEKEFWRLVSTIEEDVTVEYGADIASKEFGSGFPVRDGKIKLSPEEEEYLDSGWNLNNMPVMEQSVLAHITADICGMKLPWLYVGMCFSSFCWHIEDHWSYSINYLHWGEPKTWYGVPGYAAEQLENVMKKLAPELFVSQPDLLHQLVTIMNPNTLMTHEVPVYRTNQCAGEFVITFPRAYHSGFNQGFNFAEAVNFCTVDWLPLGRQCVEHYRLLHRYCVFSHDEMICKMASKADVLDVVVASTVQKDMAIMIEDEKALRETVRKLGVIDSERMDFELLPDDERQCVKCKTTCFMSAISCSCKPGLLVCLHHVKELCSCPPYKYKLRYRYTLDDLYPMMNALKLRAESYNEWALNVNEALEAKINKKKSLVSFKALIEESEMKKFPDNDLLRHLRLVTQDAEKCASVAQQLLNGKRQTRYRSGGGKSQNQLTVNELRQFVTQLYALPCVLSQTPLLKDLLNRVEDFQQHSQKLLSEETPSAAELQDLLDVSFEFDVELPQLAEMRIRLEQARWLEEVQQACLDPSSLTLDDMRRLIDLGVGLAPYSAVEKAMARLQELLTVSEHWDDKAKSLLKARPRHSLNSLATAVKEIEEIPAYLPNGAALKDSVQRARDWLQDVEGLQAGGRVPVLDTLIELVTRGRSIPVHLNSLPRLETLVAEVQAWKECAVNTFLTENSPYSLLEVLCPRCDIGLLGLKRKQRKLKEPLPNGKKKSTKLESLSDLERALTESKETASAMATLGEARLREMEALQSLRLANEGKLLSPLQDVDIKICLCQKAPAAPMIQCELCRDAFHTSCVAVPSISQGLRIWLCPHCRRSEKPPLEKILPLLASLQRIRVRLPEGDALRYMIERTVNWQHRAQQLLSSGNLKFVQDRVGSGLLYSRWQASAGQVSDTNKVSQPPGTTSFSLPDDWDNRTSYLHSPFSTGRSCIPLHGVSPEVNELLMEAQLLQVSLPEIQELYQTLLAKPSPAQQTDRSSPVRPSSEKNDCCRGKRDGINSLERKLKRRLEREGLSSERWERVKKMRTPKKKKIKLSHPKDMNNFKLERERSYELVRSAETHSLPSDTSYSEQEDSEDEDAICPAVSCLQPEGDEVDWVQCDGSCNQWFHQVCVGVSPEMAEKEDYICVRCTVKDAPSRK
Method in brief: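 Inhibition is measured as reduced NADH fluorescence generation from FDH coupling to formaldehyde release. Truncated KDM5BΔAP at 200 nM final acts on H3K4me3 peptide (12.5 µM in substrate mix) in pH 7.5 HEPES buffer with Tween-20, 30 min, room temperature.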
Potency is the fitted concentration of half-maximal effect; tags give direction and shape of the fitted curve.

Row | SMILES | activity change, negative = inhibition | Potency
1 | COc1ccc(OCC(=O)Nc2cc(-c3ccccc3)no2)cc1 | inactive: 13.1% | 
2 | O=C(NC1CC1)c1nc(-c2cc(Cl)cc(Cl)c2)c2ccccn12 |  | inconclusive: 11.2 µM [inhibitor, partial curve, poor fit]
3 | Cc1ccccc1N1CCCN(Cc2cccc(CCN)c2)CC1 |  | inconclusive: 22.4 µM [inhibitor, partial curve, poor fit]
4 | CCN(CC(=O)NCc1ccc(Cl)cc1)C(=O)/C=C/c1cc(OC)c(OC)c(OC)c1 |  | inconclusive: 25.1 µM [inhibitor, partial curve, poor fit]
5 | O=C(c1cccs1)N1CCN(c2nnc3ccccn23)CC1 |  | active: 22.4 µM
6 | CN(Cc1ccco1)C(=O)c1ccc(-c2ccc(N3CCCCCC3)nc2)cc1 |  | active: 28.2 µM
7 | Cc1ccccc1C(=O)N1CCCCC12Cc1ccccc1NC2=O (stereo unspecified) |  | inactive
8 | Cc1ccc(NC(=O)Cn2c(CCC(=O)O)ccc2-c2ccc(Cl)cc2)cc1 |  | inconclusive: 25.1 µM [inhibitor, single point]
9 | CC(C)c1cccc(NC(=O)c2cc3n(n2)CC(c2ccc4c(c2)OCO4)OC3)c1 (stereo unspecified) |  | inconclusive: 35.5 µM [inhibitor, partial curve, poor fit]
10 | CN1/C(=C/C(=O)CSC(=S)N2CCCC2)C(C)(C)c2ccccc21 | inactive: 17.5% | 
11 | CC(=O)c1c(C)[nH]c(C(=O)C(C)OC(=O)c2cnccn2)c1C (stereo unspecified) | inactive: 5.35% | 
12 | CCN1c2cc(C(=O)Nc3cccc(C)c3)ccc2C(=O)N2CCCC21 (stereo unspecified) |  | inconclusive: 22.4 µM [inhibitor, partial curve, poor fit]
13 | C=CCn1cc2c3c(cccc31)[C@H](CC(C)C)N[C@H](C(=O)NCc1ccccn1)C2 |  | inconclusive: 28.2 µM [inhibitor, partial curve]
14 | Cc1nc2nc(NCc3cc(F)cc(F)c3)[nH]n2c(=O)c1CCO | inactive: -0.466% | 
15 | CC(C)NC(=O)c1onc(-c2ccc(F)cc2)c1[C@H](C)O | inactive: -3.01% [at 115 µM] | 
16 | Cc1cc(C(=O)NCCc2ccc(Cl)cc2)c2c(C)nn(-c3cccc(F)c3)c2n1 |  | inconclusive: 44.7 µM [inhibitor, single point]
17 | COCCNc1ccc(-c2noc([C@@H]3CCCN3Cc3ccncc3)n2)cn1 |  | active: 28.2 µM
18 | CS(=O)(=O)N1CCC(C2CCN(Cc3ccncc3)C2)CC1 (stereo unspecified) |  | inconclusive: 20 µM [inhibitor, partial curve]
19 | Cc1cc(C)c2c(n1)SCCN2C(=O)Nc1ccc(C(=O)Nc2cc(Cl)ccc2C)cc1 |  | inconclusive: 39.8 µM [inhibitor, single point]
20 | CCCCCCCCCCS(=O)CCC(=O)O (stereo unspecified) | inactive: 2.23% | 
21 | CCCOCCNC(=O)c1c(C)noc1-c1ccc2c(c1)OCO2 |  | active: 28.2 µM
22 | COc1cccc([S+](=O)([O-])N2CCn3c(nn(-c4ccc(F)cc4F)c3=O)C2)c1 |  | active: 25.1 µM

Row | SMILES | activity change, negative = inhibition | Potency
23 | Cc1ccc(C(CNC(=O)c2ccc(NC(=O)OC(C)(C)C)cc2)N2CCOCC2)o1 (stereo unspecified) | inactive: 15.5% | 
24 | COCc1c(C(=O)Nc2ccc(S(=O)(=O)C(F)F)cc2)oc2ccccc12 |  | inconclusive: 39.8 µM [inhibitor, single point]
25 | COc1ccccc1CNc1ncnc2c1CN(C1CCCNCC1)C(=O)CN2C (stereo unspecified) |  | inconclusive: 100 µM [inhibitor, single point]
26 | CN(Cc1cn[nH]c1-c1ccc(F)cc1)C(=O)c1ccccc1C1CCNC1 (stereo unspecified) |  | inconclusive: 31.6 µM [inhibitor, single point]
27 | Cc1ccccc1Cc1c(C)nc2c(C(=O)N3CCC(Cc4nncn4CC4CC4)CC3)cnn2c1C |  | active: 25.1 µM
28 | COc1cccc(CNC(=O)c2cc3c(=O)[nH]c(C)cn3n2)c1 |  | inconclusive: 17.8 µM [inhibitor, single point]
29 | Cc1oc(-c2ccccc2)nc1CC(=O)NCCc1cccc(F)c1 | inactive: 3.38% | 
30 | C=C(C)Cn1c(SCCOCC)nc2c1c(=O)[nH]c(=O)n2C | inactive: -0.805% | 
31 | CCOc1ccc(-c2cc(C(=O)OC)c3cc(C)ccc3n2)cc1 |  | inconclusive: 15.8 µM [inhibitor, partial curve, poor fit]
32 | Fc1cc(F)cc(Cc2nc3nccc(-c4ccsc4)n3n2)c1 |  | inconclusive: 31.6 µM [inhibitor, single point]
33 | CCc1c(C)sc(NC(=O)CCc2ccccc2)c1C#N |  | inconclusive: 28.2 µM [inhibitor, partial curve, poor fit]
34 | Cn1cc(C(=O)NCc2ccc(Cl)cc2)c(=O)c2cc(S(=O)(=O)N3CCCCCC3)ccc21 |  | inconclusive: 25.1 µM [inhibitor, single point]
35 | CCOc1cccc2sc(=NC(=O)c3ccco3)n(CC(=O)OC)c12 |  | inconclusive: 35.5 µM [inhibitor, partial curve, poor fit]
36 | O=C(c1ccccn1)N1C[C@@H]2C[C@H](C1)c1ccc(NS(=O)(=O)c3cccc(F)c3)c(=O)n1C2 |  | inconclusive: 20 µM [inhibitor, partial curve, poor fit]
37 | CCN(C(=O)c1csc(-c2ccco2)n1)C1CC1 | inactive: 1.87% | 
38 | CC(C)C(NC(=O)C1CCC(C(C)(C)C)CC1)C(=O)NCCc1ccc(S(N)(=O)=O)cc1 (stereo unspecified) |  | inconclusive: 39.8 µM [inhibitor, single point]
39 | CCOC(=O)c1ccc(NC(=O)c2c(NCc3sccc3C)sc3c2CCCCC3)cc1 |  | inconclusive: 28.2 µM [inhibitor, partial curve, poor fit]
40 | COc1ccc(C(=O)/C(C#N)=C\c2ccccc2I)cc1 |  | inconclusive: 31.6 µM [inhibitor, partial curve, poor fit]
41 | COCCOC1CCOC2(CCN(C(=O)Cc3cccc(OC)c3)CC2)C1 (stereo unspecified) | inactive: -8.27% | 
42 | CCC1CSC(Nc2cccc(C)c2)=N1 (stereo unspecified) | inactive: 17.1% | 
43 | COc1ccccc1-c1cn2c(n1)CO[C@@H](CNC(=O)c1cccnc1)C2 |  | inconclusive: 31.6 µM [inhibitor, partial curve, poor fit]
44 | COc1ccc(CNC(=O)c2cccc(C(F)(F)F)c2)cc1C(=O)O | inactive: -8.26% | 

Row | SMILES | activity change, negative = inhibition | Potency
45 | COc1ccc2c(CN3CCN(c4ccc(F)cc4)CC3)cc(=O)oc2c1 | inactive: -23.1% | 
46 | CN(C)[C@@H]1CN(Cc2ccccn2)CC[C@]1(O)c1ccccc1 |  | inconclusive: 14.1 µM [inhibitor, partial curve, poor fit]
47 | Cc1cc(-c2n[nH]c(=S)n2/N=C/C=C/c2ccco2)n[nH]1 |  | inconclusive: 39.8 µM [inhibitor, partial curve, poor fit]
48 | NC(=O)c1cnn2c(-c3cccc(C(F)(F)F)c3)ccnc12 |  | inconclusive: 39.8 µM [inhibitor, single point]
49 | Cc1ccc(OCC(=O)Nc2ccc(Cl)c(-c3nc4ccccc4[nH]3)c2)cc1C |  | inconclusive: 39.8 µM [inhibitor, single point]
50 | c1ccc2c(-c3cn(CC4CNCCO4)nn3)ccnc2c1 (stereo unspecified) |  | inconclusive: 15.8 µM [inhibitor, partial curve, poor fit]
51 | COCCOCC(=O)N1CCC2(CC1)NCCc1c2[nH]c2ccccc12 |  | inconclusive: 28.2 µM [inhibitor, partial curve, poor fit]
52 | O=C(OCc1ccc(Cl)cc1Cl)c1ccc(O)cc1 |  | inconclusive: 15.8 µM [inhibitor, partial curve, poor fit]
53 | Cc1oc(-c2cccs2)nc1CC(=O)Nc1ccccc1O |  | inconclusive: 31.6 µM [inhibitor, partial curve, poor fit]
54 | COc1ccc(C(=O)N2CCN(c3oc(-c4cccs4)nc3C#N)CC2)cc1OC |  | inconclusive: 15.8 µM [inhibitor, partial curve, poor fit]
55 | O=C(c1ccccc1)c1ccccc1N1C(=O)C=CC1=O |  | inconclusive: 2.82 µM [inhibitor, full curve, poor fit]
56 | N#Cc1cccc(-c2ccnc(N[C@H]3CO[C@H]4[C@@H]3OC[C@@H]4NC(=O)c3ccc(C(F)(F)F)cc3)n2)c1 |  | inconclusive: 39.8 µM [inhibitor, single point]
57 | CCOC(=O)c1c(C)[nH]c(CCC(=O)NCCCN2CCN(c3ccccc3F)CC2)c1C |  | inconclusive: 28.2 µM [inhibitor, partial curve, poor fit]
58 | O=C(/C=C/c1ccccc1Cl)Nc1ccccc1C(F)(F)F | inactive: -3.6% | 
59 | CCCC(C)NC(=O)c1ccccc1-c1ncc(-c2ccccc2F)o1 (stereo unspecified) |  | inconclusive: 22.4 µM [inhibitor, partial curve, poor fit]
60 | COc1ccc(-c2cc3ccc(OC(=O)c4ccco4)cc3oc2=O)cc1 |  | inconclusive: 31.6 µM [inhibitor, partial curve, poor fit]
61 | CC(Oc1ccc(Cl)cc1Cl)c1nc(-c2ccncc2)no1 (stereo unspecified) | inactive: -6.19% | 
62 | O=C(Nc1cccc(C(F)(F)F)c1)c1nc2c(o1)CCN(CC1CC1)CC2 |  | inconclusive: 35.5 µM [inhibitor, partial curve, poor fit]
63 | Cc1ccc(C)c(-c2cc(C(=O)O)c3cc(C)cc(C)c3n2)c1 |  | inconclusive: 39.8 µM [inhibitor, partial curve, poor fit]
64 | CC1=C[C@@H](CNC(=O)Cn2cnnn2)[C@H](C(C)C)C[C@H]1Cc1nc2ccc(C)cc2[nH]1 |  | inconclusive: 31.6 µM [inhibitor, partial curve, poor fit]
65 | CC1CCC(COC(=O)C[N+]2(C)CCCCC2)C(C)C1 (stereo unspecified) |  | inconclusive: 25.1 µM [inhibitor, partial curve, poor fit]
66 | N#Cc1cccc(NC(=O)CCNS(=O)(=O)c2ccc3c(c2)CCN3C(=O)C2CC2)c1 |  | inconclusive: 17.8 µM [inhibitor, partial curve, poor fit]
